No constants are given. Whether binding was seen depends on the method and setting. In cells and extracts the contact can be indirect. Some results given as binding are weak or reduced against the parent protein; the word gives no strength. For some assays here: Tags and fused reporters may be left off the sequences shown.
Experiments:
Assay in all cases: co-IP; HEK293T cotransfected with the two tagged proteins for 48 h (legends; the methods say 24 h); lysis buffer 50 mM Tris pH 7.2, 150 mM NaCl, 1% sodium deoxycholate, 1% Triton X-100; antibody overnight at 4 °C, protein A/G beads 2 h; co-IP and reverse co-IP; Western blot
[1] = target: GFP-pSTING (191–338 amino acids) (porcine) (UniProt B8XX90)
[2] = target: GFP-pSTING (porcine STING) (porcine) (UniProt B8XX90)
[3] = target: T1, GFP-pSTING (1–190 amino acids) (porcine) (UniProt B8XX90)
T1 sequence: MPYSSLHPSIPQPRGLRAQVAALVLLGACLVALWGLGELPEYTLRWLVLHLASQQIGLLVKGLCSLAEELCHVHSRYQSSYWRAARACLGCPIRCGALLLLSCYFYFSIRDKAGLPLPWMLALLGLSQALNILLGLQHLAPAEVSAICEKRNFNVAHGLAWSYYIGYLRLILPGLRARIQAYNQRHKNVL

[4] = target: GFP-pSTING L373A (porcine) (UniProt B8XX90)
[5] = target: GFP-pSTING (1–338 amino acids) (porcine) (UniProt B8XX90)
[6] = target: GFP-pSTING (191–378 amino acids) (porcine) (UniProt B8XX90)
[7] = target: T2, GFP-pIRF3 (187–378 amino acids) (porcine) (UniProt Q764M6)
T2 sequence: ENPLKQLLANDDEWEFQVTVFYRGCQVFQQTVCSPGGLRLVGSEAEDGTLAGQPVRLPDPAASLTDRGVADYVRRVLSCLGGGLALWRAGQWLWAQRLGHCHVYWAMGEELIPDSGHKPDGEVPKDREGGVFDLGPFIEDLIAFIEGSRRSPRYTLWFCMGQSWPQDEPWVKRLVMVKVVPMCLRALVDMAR

[8] = target: T3, GFP-pIRF3 (porcine IRF3) (porcine) (UniProt Q764M6)
T3 sequence: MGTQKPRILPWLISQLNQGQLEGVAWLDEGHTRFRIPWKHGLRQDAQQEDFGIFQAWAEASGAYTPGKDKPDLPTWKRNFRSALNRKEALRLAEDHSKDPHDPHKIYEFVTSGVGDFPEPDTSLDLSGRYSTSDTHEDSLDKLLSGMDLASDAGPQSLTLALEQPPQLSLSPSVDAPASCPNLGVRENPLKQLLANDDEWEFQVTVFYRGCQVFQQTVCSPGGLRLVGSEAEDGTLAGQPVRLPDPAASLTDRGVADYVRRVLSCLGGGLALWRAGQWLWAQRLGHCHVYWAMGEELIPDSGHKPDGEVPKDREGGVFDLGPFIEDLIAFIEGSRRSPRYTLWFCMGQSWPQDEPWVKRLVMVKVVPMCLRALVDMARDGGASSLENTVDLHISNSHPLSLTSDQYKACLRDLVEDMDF

- binding [1]: no binding
- binding [2]: binds
- binding [3]: no binding
- binding [4]: no binding
- binding [5]: no binding
- binding [6]: binds
- binding [7]: binds
- binding [8]: binds
B1: mCherry-pIKKε (porcine IKKε) (protein, UniProt M9MMN5 1-718)
chain: MQSTVNYLWHTDDLLGQGATASVYKARNKKSGELVAVKVFNTASYLRPREVQVREFEVLRKLNHQNIIKLFAVEETGGSRQKVLVMEYCSSGSLLSVLESPENAFGLPENEFLVVLRCVVAGMNHLRENGIVHRDIKPGNIMRLVGEEGQSIYKLTDFGAARELDDDEKFVSVYGTEEYLHPDMYEQAVLRKPQQKAFGVTVDLWSIGVTLYHAATGSLPFIPYGGPRRNKEIMYRITSEKPAGAIAGIQKRENGPLEWSYTLPVTCQLSTGLQSQLVPILANILEVEQAKCWGFDQFFAETSDILQRVIVHVFSLPQAVLHHVYVHTHNTIAIFLEAVYEQTNVAPQHQEYLFEGHLCVLEPSLSAQHIAHTTASSPLTLFSVASEIPKGLAFRDPALDIPKFVPKVDLQADYNTAKGVLGAGYQALRLARALLAGQELMLRGLHWFVEILQATCKRTLEVTRMALLFLSSSLGNERSSSVAGVQEIQELKRVAEMRSQLRTLAEVLSRCSHNITETQMTLSNLSSELMKNRDQVHEDRSIQQIQCSLDKMCLIYKQFKKSRMRPGLGYNEEQIHKLDKMNFSHLAKRLLQVFQEERVQKYQASLVTHGKRMRLVHETRNHLRLVGCSVAACNTQAQGAQESLSQILDQLAHQLLQDRTRGAQASPPLMATYPNPGLKDLVLHMQELCEEMKLLACDLQDNNRIIEGLNRVPAAPDI
